{"source": "PubChem BioAssay (NCATS)", "key": {"[1]": {"experiment": "Primary redox qHTS assay for identification of artifact compounds. (AID 1845223); also: potency is read from the fitted curve at half-maximal effect;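 as to redox activity (% of DA3003): 0% = DMSO and 100% = reference compound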", "conditions": "Amplex Red/HRP redox cycling with DTT, fluorescence; redox activity (% of DA3003): at 53.8 µM (top of the series)", "summary_of_the_method": "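Redox-cycling detection via DTT (250 uM final) oxidation coupled to Amplex Red (25 uM)/HRP (250 mU/mL) in HBSS. 15 min preincubation plus 30 min after DTT, room temperature. Ex/Em 525/598 nm; 4-parameter Hill fit against DMSO and 10 uM DA3003.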"}, "[2]": {"system": "JEG-3", "experiment": "Primary qHTS to identify gynecologic anti-cancer compounds using libraries of approved drugs and bioactive compounds (AID 1345084); also: nearly all actives have a fitted effect of over 55% in size; also: potency is read from the fitted curve at half-maximal effect; as to activity change, negative = cytotoxicity: % is scaled to controls: 0 for no effect and ±100 for the full control effect", "conditions": "Gynecologic cancer cell panel viability, ATPlite luminescence, 48 h; series mostly up to 57.5 µM", "summary_of_the_method": "(§1)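 Cytotoxicity screen measuring ATP content by luciferase luminescence. Each compound is applied at five concentrations for 48 h at 37 C with 5% CO2.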"}, "[3]": {"system": "Es-2", "experiment": "Primary qHTS to identify gynecologic anti-cancer compounds using libraries of approved drugs and bioactive compounds (AID 1345084)", "conditions": "Gynecologic cancer cell panel viability, ATPlite luminescence, 48 h; series mostly up to 57.5 µM", "summary_of_the_method": "as §1"}, "[4]": {"experiment": "qHTS of pediatric cancer cell lines to identify multiple opportunities for drug repurposing: Primary screen for DAOY cells (AID 1347090)", "conditions": "DAOY medulloblastoma viability, CellTiter-Glo luminescence, 48 h; activity change, negative = cytotoxic: at 46 µM (top of the series)", "summary_of_the_method": "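Eight- or eleven-point concentration series, 48 h treatment at 37 degrees C in growth media; readout CellTiter-Glo luminescence. Potency and efficacy were taken from the concentration-response curves.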"}, "[5]": {"experiment": "qHTS of pediatric cancer cell lines to identify multiple opportunities for drug repurposing: Primary screen for A673 cells (AID 1347092)", "conditions": "A673 Ewing sarcoma viability, CellTiter-Glo ATP luminescence, 48 h; activity change, negative = cytotoxic: at 46 µM (top of the series)", "summary_of_the_method": "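Titration-based qHTS on A673 cells: MIPE compounds spanned 11 points (0.78 nM to 46 µM final), NPC compounds 8 points (0.59 nM to 46 µM final). Viability after 48 h was measured by ATP luminescence.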"}, "[6]": {"experiment": "qHTS of pediatric cancer cell lines to identify multiple opportunities for drug repurposing: Primary screen for OHS-50 cells (AID 1347103)", "summary_of_the_method": "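Cells (500-1,000/well) rested 5 h, then received compounds for 48 h; metabolically active cells were measured by CellTiter-Glo luminescence. Final concentrations spanned up to 46 µM (MIPE, 11-point) or 0.59 nM-46 µM (NPC, 8-point) in primary screens, 11-point in follow-ups.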"}, "[7]": {"experiment": "Drug repurposing screens with cells derived from glioblastoma tumor samples (AID 1345199)", "conditions": "GBM patient neurospheres viability, ATP luminescence, 48 h; Potency: tumour line A unless noted; activity, negative = cell killing: at 46 µM (top of the series), tumour line A unless noted", "summary_of_the_method": "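Primary testing used CD133+ neurospheres from four GBM patients, seven concentrations, 48 h exposure and ATP-based viability; confirmation added three slower-growing patient lines.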"}, "[8]": {"system": "HeLa", "experiment": "Primary qHTS to identify gynecologic anti-cancer compounds using libraries of approved drugs and bioactive compounds (AID 1345084)", "conditions": "Gynecologic cancer cell panel viability, ATPlite luminescence, 48 h; activity change, negative = cytotoxicity: at 57.5 µM (top of the series)", "summary_of_the_method": "as §1"}, "[9]": {"system": "Tov112D", "experiment": "Primary qHTS to identify gynecologic anti-cancer compounds using libraries of approved drugs and bioactive compounds (AID 1345084)", "conditions": "Gynecologic cancer cell panel viability, ATPlite luminescence, 48 h; series mostly up to 57.5 µM", "summary_of_the_method": "as §1"}}, "note": "The inconclusive results got no clear call from the source; some entries with a clear call stand among them for comparison. For some of these results: Potencies of inconclusive entries are left out as doubtful fits. The source made the active and inactive calls. Calls follow the shape of the dose curve; as a rule, active = well fitted curve in the direction sought with a large enough effect; inconclusive = small, poorly fitted or top-dose-only effect, or another doubt; inactive = no such curve, though single readings can be large; an effect the other way counts as inactive or inconclusive. Peptide text beside a SMILES is read from it. Tags tell the direction and shape of the fitted curve.", "data": [{"compound": "C[C@H](CCC(=O)O)[C@H]1CC[C@H]2[C@@H]3C[C@H](O)[C@@H]4C[C@H](O)CC[C@]4(C)[C@H]3CC[C@]12C", "values": [{"measurement": "Potency", "setting": "[1]", "result": "inconclusive [activator, partial curve, poor fit]"}, {"measurement": "Potency", "setting": "[2]", "result": "inactive"}]}, {"compound": "CC1=CCC(O)C2(C)CCC3C(C)C(=O)OC3C12", "note": "(stereo unspecified)", "values": [{"measurement": "Potency", "setting": "[3]", "result": "inactive"}]}, {"compound": "COC(=O)C1=COC(O[C@@H]2O[C@H](CO)[C@@H](O)[C@H](O)[C@H]2O)/C(=C\\COC(=O)c2ccc(OC3OC(CO)C(O)C(O)C3O)c(OC)c2)C1CC(=O)OCCc1ccc(O)cc1", "note": "(stereo partly specified)", "values": [{"measurement": "Potency", "setting": "[1]", "result": "inconclusive [activator, partial curve, poor fit]"}]}, {"compound": "C=CC(C)(C)c1[nH]c2cc3c(cc2c1CC1NC(=O)C2CCCN2C1=O)C=CC(C)(C)O3", "note": "(stereo unspecified)", "values": [{"measurement": "Potency", "setting": "[3]", "result": "inactive"}]}, {"compound": "CC(C)(C)C(O)/C=C/c1ccc2c(c1)OCO2", "note": "(stereo unspecified)", "values": [{"measurement": "Potency", "setting": "[4]", "result": "inactive"}, {"measurement": "Potency", "setting": "[5]", "result": "inactive"}, {"measurement": "Potency", "setting": "[6]", "result": "inconclusive [cytotoxic, partial curve, poor fit]"}, {"measurement": "Potency", "setting": "[7]", "result": "active: 15.8 µM"}]}, {"compound": "Cc1cc(C)c2c(N)c(C(=O)NCc3ccc(Cl)cc3)sc2n1", "values": [{"measurement": "Potency", "setting": "[1]", "result": "inactive"}, {"measurement": "Potency", "setting": "[2]", "result": "inactive"}]}, {"compound": "CC1NC(=O)CNC(=O)C(C(C)C)NC(=O)C2CCCN2C(=O)C(C(C)C)NC(=O)C(Cc2c[nH]c3ccccc23)NC1=O", "note": "(stereo unspecified) (cyclo(GAWVPV); configuration not given here)", "values": [{"measurement": "Potency", "setting": "[1]", "result": "inactive"}, {"measurement": "Potency", "setting": "[8]", "result": "inactive"}, {"measurement": "Potency", "setting": "[2]", "result": "inactive"}]}, {"compound": "Cc1ccc(-c2cn3c4c(sc3n2)CCCC4)cc1", "values": [{"measurement": "Potency", "setting": "[2]", "result": "inconclusive [cytotoxic, single point]"}]}, {"compound": "COC(=O)[C@@]1(C)CC[C@]2(C(=O)O[C@@H]3O[C@H](CO)[C@@H](O)[C@H](O)[C@H]3O)CC[C@]3(C)C(=CCC4[C@@]5(C)CC[C@H](O[C@@H]6O[C@H](C(=O)O)[C@@H](O)[C@H](O)[C@H]6O)C(C)(C)C5CC[C@]43C)[C@@H]2C1", "note": "(stereo partly specified)", "values": [{"measurement": "Potency", "setting": "[1]", "result": "inconclusive [activator, full curve, poor fit]"}]}, {"compound": "O=C(O)c1cc(O)c2cccc(O)c2c1O[C@@H]1O[C@H](CO)[C@@H](O)[C@H](O)[C@H]1O", "values": [{"measurement": "Potency", "setting": "[1]", "result": "inconclusive [activator, partial curve]"}]}, {"compound": "COc1ncc(Nc2ncc([C@H](C)N3CCN(S(C)(=O)=O)CC3)cc2-c2nc(C)nc(N)n2)cc1F", "values": [{"measurement": "Potency", "setting": "[2]", "result": "inconclusive [cytotoxic, partial curve, poor fit]"}, {"measurement": "Potency", "setting": "[9]", "result": "inactive"}]}, {"compound": "C[C@@H]1O[C@@H](O[C@H]2[C@H](O[C@H]3CC[C@@]4(C)C(CC[C@]5(C)C4C=C[C@]46OC[C@@]7(CCC(C)(C)C[C@H]74)[C@@H](O)C[C@]65C)[C@]3(C)CO)O[C@H](CO)[C@@H](O)[C@@H]2O[C@@H]2O[C@H](CO)[C@@H](O[C@@H]3O[C@@H](C)[C@H](O)[C@@H](O)[C@H]3O)[C@H](O)[C@H]2O)[C@H](O)[C@H](O)[C@H]1O", "note": "(stereo partly specified)", "values": [{"measurement": "activity change, negative = cytotoxicity", "setting": "[2]", "result": "inactive: -0.552% [at 11.6 µM]"}]}, {"compound": "N#Cc1cnc2cnc(NCc3cccnc3)cc2c1Nc1ccc(F)c(Cl)c1", "values": [{"measurement": "Potency", "setting": "[3]", "result": "inconclusive [cytotoxic, partial curve, poor fit]"}, {"measurement": "Potency", "setting": "[9]", "result": "inconclusive [cytotoxic, single point]"}]}, {"compound": "O=C(O)CC(CCc1ccccc1)OC1OC(CO)C(O)C(O)C1O", "note": "(stereo unspecified)", "values": [{"measurement": "Potency", "setting": "[1]", "result": "inactive"}]}, {"compound": "CN[C@H](C(=O)N[C@H](C(=O)N(C)[C@H](/C=C(\\C)C(=O)O)C(C)C)C(C)(C)C)C(C)(C)c1ccccc1", "values": [{"measurement": "Potency", "setting": "[3]", "result": "inconclusive"}, {"measurement": "Potency", "setting": "[8]", "result": "inconclusive"}, {"measurement": "Potency", "setting": "[2]", "result": "inconclusive"}, {"measurement": "Potency", "setting": "[9]", "result": "inconclusive"}]}, {"compound": "C/C(=N\\O)[C@@H](C)NCC(C)(C)CN[C@H](C)/C(C)=N/O", "values": [{"measurement": "Potency", "setting": "[5]", "result": "inactive"}, {"measurement": "Potency", "setting": "[8]", "result": "inactive"}]}, {"compound": "CC1(C)CCCC2(C)C1CC(=O)C13CC(CCC12)C(O)(CO)C3", "note": "(stereo unspecified)", "values": [{"measurement": "Potency", "setting": "[3]", "result": "active: 4.47 µM"}]}, {"compound": "C=CC(=O)Nc1cc(Nc2ncc(Cl)c(-c3c[nH]c4ccccc34)n2)c(OC)cc1N(C)CCN(C)C", "values": [{"measurement": "Potency", "setting": "[1]", "result": "inconclusive [activator, full curve]"}, {"measurement": "Potency", "setting": "[3]", "result": "inconclusive [cytotoxic, single point]"}, {"measurement": "Potency", "setting": "[2]", "result": "active: 12.6 µM"}, {"measurement": "Potency", "setting": "[9]", "result": "active: 15.8 µM"}]}, {"compound": "OC[C@H]1O[C@@H](n2cnc3c(NCc4ccc(O)cc4)ncnc32)[C@H](O)[C@@H]1O", "values": [{"measurement": "Potency", "setting": "[8]", "result": "inconclusive [cytotoxic, partial curve]"}, {"measurement": "Potency", "setting": "[2]", "result": "inconclusive [cytotoxic, partial curve, poor fit]"}, {"measurement": "Potency", "setting": "[9]", "result": "inconclusive [cytotoxic, full curve]"}]}, {"compound": "Clc1ccc2c(c1)C1=NCCN1c1c(-c3noc(C4CC4)n3)ncn1-2", "values": [{"measurement": "Potency", "setting": "[1]", "result": "inactive"}, {"measurement": "Potency", "setting": "[3]", "result": "inactive"}, {"measurement": "Potency", "setting": "[8]", "result": "active: 3.16 µM"}]}, {"compound": "CNCc1ccc(-c2cc(-c3nc(-c4ccc(S(=O)(=O)C(C)C)cc4)cnc3N)on2)cc1", "values": [{"measurement": "Potency", "setting": "[8]", "result": "inconclusive [cytotoxic, partial curve, poor fit]"}, {"measurement": "Potency", "setting": "[9]", "result": "inconclusive [cytotoxic, partial curve, poor fit]"}]}, {"compound": "CCC1C(=O)OC23C=C[C@@H]4C(C(=O)O)=CO[C@H](O[C@@H]12)[C@@H]43", "note": "(stereo partly specified)", "values": [{"measurement": "Potency", "setting": "[9]", "result": "inconclusive [cytotoxic, single point]"}]}, {"compound": "COc1cc(C=O)ccc1O", "values": [{"measurement": "Potency", "setting": "[7]", "result": "inconclusive [inhibitor, single point]"}]}, {"compound": "CC1CC(=O)C2=C(CCC3(O)C(O)c4c(O)cccc4C(=O)C23O)C1", "note": "(stereo unspecified)", "values": [{"measurement": "Potency", "setting": "[8]", "result": "inactive"}, {"measurement": "Potency", "setting": "[2]", "result": "inactive"}]}]}
